Results taken from ChEMBL document CHEMBL1201862, “PubChem BioAssay data set” (2004).
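Exposure lasted 48 hours, with cells grown in 96-well plates and compounds tested at five concentrations. GI50 marks 50% less growth.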 Activity calls are given as the source filed them. No stated cut-off is given here; in the data, active = GI50 up to about 1.1 µM and inactive = higher.

These compounds were tested on NCI-H322M (assay: DTP human tumour cell line panel, 48 h).

Compound	GI50
COc1ccc2c(c1)C(=O)CCc1cc(OC)c(OC)c(OC)c1-2	active: 0.0533 µM
Cc1cc(S(=O)(=O)Nc2n[nH]c(Nc3ccccc3)n2)c(S)cc1Cl	inactive: > 10 µM
O=C(CC1C=Cc2ccccc2N1C(=O)c1ccccc1)c1ccccc1 (stereo not given)	inactive: 19 µM
c1ccc2c[n+](CCCC[n+]3ccc4ccccc4c3)ccc2c1	inactive: > 100 µM
CC(C)Cn1cnc2c(Sc3c([N+](=O)[O-])ncn3C)nc(N)nc21	inactive: 97.7 µM
COC(=O)/C=C(\C)CC/C=C(\C)CCC1OC1(C)C (stereo not given)	inactive: 43 µM
CSc1nc2c(c(=O)[nH]1)N=C(c1ccccc1)CC(c1ccccc1)N2 (stereo not given)	inactive: 60.4 µM
CC1(C)C2C/C(=C\c3ccccc3)C(=O)C1C2 (stereo not given)	inactive: > 100 µM
CCOC(=O)/C(Br)=C1/OC(=O)c2ccccc2-c2ccccc21.CCOC(=O)/C(Br)=C1\OC(=O)c2ccccc2-c2ccccc21	inactive: 22.2 µM
CC(C)/C(Cl)=N\OC(=O)Nc1cccc(Cl)c1	inactive: 11.9 µM
O=C(O)c1cc(O)c2c(c1)C([C@@H]1c3cccc(O)c3C(=O)c3c(O)cc(C(=O)O)cc31)c1cccc(O)c1C2=O (stereo not given in full)	inactive: 63.7 µM
O=C1Nc2ccc(Br)cc2/C1=N/Nc1ccccc1[N+](=O)[O-]	inactive: 22.2 µM
O=C(c1c(O)cc(O)cc1O)C1Cc2ccccc21 (stereo not given)	inactive: > 100 µM
CSc1nc(C)cc(Nc2ccc(O)c(CN3CCCCC3)c2)n1	inactive: 35.1 µM
COC(=O)/C=C\[C@H]1[C@H](C)N1S(=O)(=O)c1ccc(C)cc1 (stereo not given in full)	inactive: > 100 µM
CSc1ncc2c(n1)C(C#N)C1Sc3ccccc3N1C2=O (stereo not given)	inactive: > 100 µM
Cc1ccc(C2=C(c3ccccc3)C(=O)C(c3ccccc3)=C2c2ccc(C)cc2)cc1	inactive: 78.2 µM
C[C@]12CC[C@@H]3c4ccc(OC(=O)c5ccccc5)cc4CC[C@H]3[C@@H]1CC[C@@H]2Oc1c2ccccc2nc2ccccc12	inactive: 10.5 µM
O=C(CO)CC(=O)C(=O)Nc1ccccc1	inactive: > 100 µM
CC(C)(C)c1ccc(Oc2ccc(C#N)c(C#N)c2)c(C(C)(C)C)c1	inactive: > 100 µM
O=C1C(CN2CCOCC2)CCCC1CN1CCOCC1 (stereo not given)	inactive: 13.9 µM
Cn1c2c(c3ccccc31)CC(=O)N1CCCCC1C21OCCO1 (stereo not given)	inactive: > 100 µM
Nc1nc(Cl)c(/C=N\O)c(NCC2(CO)CC(=O)C2)n1	inactive: 51.8 µM

Compound	GI50
CCc1cccc(C(C)CC)c1NC(=O)CC1C(=O)Nc2ccccc2[S+]1[O-] (stereo not given)	inactive: 89.9 µM
Nc1nc(Cl)cc(NCC2(CO)CCC(O)C2)n1 (stereo not given)	inactive: > 100 µM
CCCCCCCCCC1CC(=O)OC23CCCC(=O)C12O3 (stereo not given)	inactive: > 100 µM
CCN(CC)CC1CN=C(N)O1 (stereo not given)	inactive: > 100 µM
C=Nc1ccc([N+](=O)[O-])cc1	inactive: > 100 µM
Cc1cccc2nc3cccc(C(=O)NCCC[N+](C)(CCCNC(=O)c4cccc5nc6cccc(C)c6nc45)Cc4c([N+](=O)[O-])ncn4C)c3nc12	active: 1.06 µM
COC1=CC(=O)N(C(=O)C2CSC(C(CO)NC(=O)c3csc(/C=N/O)n3)=N2)C1 (stereo not given)	inactive: > 100 µM
CSc1nc2nc(C(O)C(O)C(O)CO)cnc2c(=O)[nH]1 (stereo not given)	inactive: > 100 µM
CCC(=O)c1cc(C(=O)C(=S)SC)cc(C(=O)C(=S)SC)c1	inactive: > 100 µM
COC(=O)C1SC[C@H]2C(=O)N(c3ccccc3)C(=O)N12 (stereo not given in full)	inactive: > 100 µM
CN(C)CCS/C(=N\c1ccccc1)N1C=COC=C1	inactive: 53.3 µM
CCOC(=O)c1c(OCC)[nH]c(=O)c(C(c2ccc(F)cc2)c2c(O)c(C(=O)OCC)c(OCC)[nH]c2=O)c1O	inactive: 16.9 µM
COc1ccc2occ(CCC(=O)O)c2c1	inactive: > 100 µM
Cc1ccc([N+](=O)[O-])cc1S(=O)(=O)Nc1ccc(C2=NOC(c3ccccc3)C2)cc1 (stereo not given)	inactive: 21 µM
COC(=O)C(C(=O)OC)C1CCCC(=O)C1 (stereo not given)	inactive: > 100 µM
CC[C@H]1C=CCC[C@@]2(C[C@@H]3CC[C@H]4[C@H](C(=O)OCCCCCCCCCCCCCCCC(=O)N(CCCN)C[C@@H](O)CCN)[C@]5(CCC[C@@H](C)O5)NC(=[N+]34)N2)O1	inactive: 1.17 µM
COc1ccc(NC(=O)C2=C(SC)C(=O)N=C2N)cc1	inactive: > 100 µM
CCN(CC)CCCNC(=O)Cc1ccccc1Nc1c(Cl)cccc1Cl	inactive: 15 µM
COc1ccc(/C=C2\N=C(N3CCCC(CO)C3)NC2=O)cc1 (stereo not given)	inactive: > 100 µM
CC(C)c1cc2c(cc1S(=O)(=O)O)[C@@]1(C)CCC[C@@](C)(C(=O)O)C1CC2 (stereo not given in full)	inactive: > 100 µM
Oc1c(NCn2nc(CCCCCCCCc3nn(CNc4ccc5ccccc5c4O)c(=S)o3)oc2=S)ccc2ccccc12	inactive: > 100 µM
CCN(CC)CCC(=O)c1ccc(Oc2ccc(C)cc2)cc1	inactive: 43.7 µM
Cc1ccc(NC(=S)C#N)c(C)c1	inactive: > 100 µM

Compound	GI50
Cc1c(O)c(=O)ccn1CCc1c[nH]c2ccccc12	inactive: 11 µM
CC(=O)NC1C(OCc2ccccc2)OC(COC(=O)CCCCCCCCCCNC(=O)CCNc2ccc([N+](=O)[O-])c3[nH]c4ccc(O)cc4c(=O)c23)C(O)C1OC(C)C(=O)N[C@H](C(=O)N[C@H](CCC(=O)O)C(N)=O)C(C)C (stereo not given in full)	inactive: > 100 µM
CC(C)N(C(=O)C1(C)CC1)C(C)C	inactive: > 100 µM
O=c1c(/C=C/c2c(O)ccc3ccccc23)nnc2sc(-c3cccc(Br)c3)nn12	inactive: 24.4 µM
CN(C)CC1CCC/C(=C\c2ccc(N(C)C)cc2)C1=O (stereo not given)	inactive: 17.8 µM
COC1(OC)CCc2c(sc3ncnc(Nc4cccc(Br)c4)c23)C1	inactive: 3.78 µM
CC(=O)O[C@H]1CC[C@H]2[C@@H]3CCC4C(C)=NNC(=O)C4[C@H]3CC[C@]12C (stereo not given in full)	inactive: > 80.4 µM
CC1=C(C(=O)OCCO[N+](=O)[O-])C(c2cccc([N+](=O)[O-])c2)C(C(=O)OC(C)C)=C(C)N1 (stereo not given)	inactive: 20.2 µM
CCOC(=O)c1c(CN2CCCC2)n(-c2ccccc2)c2cc(Br)c(OC)cc12	inactive: 21.2 µM
CCOC(=O)C(C)(C(=O)OCC)/C(Cl)=C\Cl	inactive: 2.16 µM
Cc1cc(N(CCC#N)S(=O)(=O)c2ccccc2)ccc1/C=N\c1cccc(C(=O)O)c1	inactive: > 100 µM
O=C(c1ccc(O)cc1)C1c2c3c(cc(O)c2C(c2ccc(O)cc2)C1c1cc(O)cc(O)c1)OC(c1ccc(O)cc1)C3c1cc2c(cc1O)OC(c1ccc(O)cc1)C2c1cc(O)cc(O)c1 (stereo not given)	inactive: > 12.5 µM
O=C(Nc1ccccc1C(=O)NC(=O)c1ccccc1NC(=O)c1ccccc1)c1ccccc1	inactive: 13.9 µM
CC(C)(C)c1cc2c(O)c(c1)Cc1cc(C(C)(C)C)cc(c1O)Cc1cc(C(C)(C)C)cc(c1O)Cc1cc(C(C)(C)C)cc(c1O)Cc1cc(C(C)(C)C)cc(c1O)Cc1cc(C(C)(C)C)cc(c1O)Cc1cc(C(C)(C)C)cc(c1O)Cc1cc(C(C)(C)C)cc(c1O)C2	inactive: > 50 µM
O=C(c1ccccc1)N1CCC(Nc2nccs2)O1 (stereo not given)	inactive: > 10 µM
OC[C@@H]1CC#C/C=C\C#CC[C@@H]1CO	inactive: > 100 µM
CC(=O)N(CCc1ccccc1)C(C#N)c1ccccc1 (stereo not given)	inactive: > 100 µM
ClCC1(CCl)COC1	inactive: > 100 µM
CC1(C)CS(=O)(=O)CC(C)(C)C(=N/N)/C1=N\N	inactive: > 100 µM
C/C(=N\NC(N)=S)c1ccc(/C(C)=N/NC(N)=S)cc1	inactive: > 100 µM
CC(C)OP(=O)(OC(C)C)C(C(F)(F)F)C(F)(F)F	inactive: > 100 µM
CC(=O)OCCn1cnc2nc(Nc3ccccc3)nc(Cl)c21	inactive: 71.1 µM
O=[N+]([O-])/C(C(Cl)=C(Cl)Cl)=C(\Nc1ccccc1)n1nnc2ccccc21	inactive: 33.9 µM

Compound	GI50
CCc1n[nH]c(=O)n1NC(=O)/C=C\C(=O)O	inactive: > 100 µM
Nc1ncnc2c1ncn2[C@@H]1O[C@H](COP(=O)(O)OP(=O)(O)OC[C@H]2O[C@@H](OCCCO)[C@H](O)[C@@H]2O)[C@@H](O)[C@H]1O	inactive: 94.6 µM
Nc1nc(Br)nc2ncn(C3CC(O)C(CO)O3)c12 (stereo not given)	inactive: > 100 µM
c1ccc(SC23C4C5C6C4C2C6C53)nc1 (stereo not given)	inactive: > 100 µM
OC(C/C=N/N=C/CC(O)(C(F)(F)Cl)C(F)(F)Cl)(C(F)(F)Cl)C(F)(F)Cl	inactive: > 10 µM
COc1cc(C2SCC(=O)N2NC(=O)c2ccc(NC(C)=O)cc2)cc(OC)c1OC (stereo not given)	inactive: > 100 µM
COC(=O)c1cc(C)ccc1C1CN=NC12Cc1cccc(C)c1C2=O (stereo not given)	inactive: 50.6 µM
N#Cc1ccc(C2OCC3CC=CCC3CO2)cc1 (stereo not given)	inactive: > 100 µM
CC(=O)OCC1OC(n2c3c(cc(C#N)c2=O)CCCCCC3)C(OC(C)=O)C(OC(C)=O)C1OC(C)=O (stereo not given)	inactive: > 100 µM
CC(CC=O)Nc1nn2c(=O)c3ccccc3nc2s1 (stereo not given)	inactive: > 100 µM
COC(=O)c1ccc(/N=N/N(C)COc2ccc([N+](=O)[O-])cc2)cc1	inactive: > 100 µM
O=C(NCCCl)N(O)C(=O)Nc1ccccc1	inactive: > 100 µM
COC(=O)NN(C(=O)OC)c1c(-c2ccccc2)nc(SC)n1N	inactive: > 100 µM
CC(O)CC(=O)CO[C@H]1[C@H](O)[C@@H](O)[C@@H](O)[C@@H]2NC(=O)c3c(cc4c(c3O)OCO4)[C@H]21 (stereo not given in full)	active: 0.0589 µM
O=C(O)CCCc1cc2c(s1)-c1cccc3cccc-2c13	inactive: 29 µM
COc1cc(C2c3cc4c(cc3[C@@H](Nc3ccc5c(c3)OCCO5)C3COC(=O)[C@H]23)OCO4)cc(OC)c1O (stereo not given in full)	inactive: 4.05 µM
O=C1/C(=C/c2cccc([N+](=O)[O-])c2)Cc2ccccc21	inactive: > 100 µM
Cc1cnc2nc(-c3ccc(F)cc3)cc(O)c2c1	inactive: 32.2 µM
Cc1[nH]n(C2=NCCN2)c(=O)c1C	inactive: > 100 µM
C=C1C[C@@H](O)[C@@H](Br)C(C)(C)[C@@]12C=CC(=O)CC2	inactive: > 100 µM
c1ccc2c(CN3CCC(C4CCN(Cc5cccc6ccccc56)CC4)CC3)cccc2c1	inactive: 6.95 µM
